# The whole screen tested about 350,000 compounds, of which about 31,000 (8.9%) were called active. This list was built around the results that the source calls inconclusive (neither active nor inactive); the mix of calls is not that of the screen. The call rests on the fitted dose curve; in most records, active means well fitted inhibition curve with a large enough effect; inconclusive means small, poorly fitted or top-dose-only effect; inactive means no such curve, though single readings can be large or run the other way. Potencies beside an inconclusive call are fits to weak or partial responses and may not hold up.
# Biological target: Histone-lysine N-methyltransferase EHMT2 (Homo sapiens) (UniProt Q96KQ7)
# Sequence of UniProt Q96KQ7 (Q96KQ7 whole entry, looked up): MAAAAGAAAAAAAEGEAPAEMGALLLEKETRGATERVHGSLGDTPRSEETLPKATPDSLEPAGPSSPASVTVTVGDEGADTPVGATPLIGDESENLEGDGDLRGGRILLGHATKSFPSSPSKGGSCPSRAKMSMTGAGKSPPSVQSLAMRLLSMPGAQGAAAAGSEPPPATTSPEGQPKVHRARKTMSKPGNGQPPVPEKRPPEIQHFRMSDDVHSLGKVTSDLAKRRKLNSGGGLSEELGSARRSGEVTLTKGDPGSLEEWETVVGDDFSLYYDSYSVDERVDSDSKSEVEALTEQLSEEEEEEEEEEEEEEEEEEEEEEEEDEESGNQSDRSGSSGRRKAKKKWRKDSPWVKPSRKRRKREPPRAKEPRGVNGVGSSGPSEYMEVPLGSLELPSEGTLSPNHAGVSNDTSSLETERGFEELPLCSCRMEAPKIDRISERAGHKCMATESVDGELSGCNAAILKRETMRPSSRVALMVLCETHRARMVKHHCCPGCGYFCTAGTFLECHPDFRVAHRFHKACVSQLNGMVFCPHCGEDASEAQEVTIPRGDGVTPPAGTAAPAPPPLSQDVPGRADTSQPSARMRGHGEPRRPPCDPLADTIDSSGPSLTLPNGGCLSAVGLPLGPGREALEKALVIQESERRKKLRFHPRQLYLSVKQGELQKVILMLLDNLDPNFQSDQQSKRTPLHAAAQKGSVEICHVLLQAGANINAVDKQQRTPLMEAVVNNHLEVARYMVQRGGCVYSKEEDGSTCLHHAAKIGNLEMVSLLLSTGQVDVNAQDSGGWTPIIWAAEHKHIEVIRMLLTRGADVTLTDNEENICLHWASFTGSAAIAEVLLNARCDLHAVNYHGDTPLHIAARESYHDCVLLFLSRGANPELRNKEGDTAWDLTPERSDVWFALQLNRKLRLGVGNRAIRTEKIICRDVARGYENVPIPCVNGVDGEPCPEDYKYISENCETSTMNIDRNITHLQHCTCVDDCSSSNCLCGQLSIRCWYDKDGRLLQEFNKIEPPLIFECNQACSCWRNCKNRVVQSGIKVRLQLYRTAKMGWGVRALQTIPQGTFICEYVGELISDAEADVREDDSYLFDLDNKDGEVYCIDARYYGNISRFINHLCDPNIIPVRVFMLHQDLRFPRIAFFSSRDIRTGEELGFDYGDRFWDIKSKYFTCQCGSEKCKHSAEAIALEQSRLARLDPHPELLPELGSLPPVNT
# Test: qHTS Assay for Inhibitors of Histone Lysine Methyltransferase G9a; further: nearly all actives have a fitted effect of over 75% in size
# Conditions: G9a H3K9 monomethylation, AlphaScreen, 2 h; activity, negative = inhibition: at 59 µM (top of the series) unless noted
# In short: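 Readings reflect AlphaScreen signal from monomethyl-H3K9 antibody detection. HMT at 20 nM; substrate b-H3K9 500 nM; cofactor SAM 20 uM; 2 h RT reaction; compounds tested as titrations in qHTS with 15 min preincubation.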
# On the % scale 0 is the no-effect control and ±100 the full control effect; potency means the concentration at half of the fitted maximal effect; tags describe the fitted curve by direction and shape.
SMILES,Potency,"activity, negative = inhibition"
C=CCc1cccc(CNc2ccc(S(=O)(=O)Nc3nccnc3OC)cc2)c1O,"inconclusive: 44.7 µM [inhibitor, single point]",
O=C(Cc1ccc(Cl)cc1)NCC(c1cccs1)S(=O)(=O)c1ccccc1 (stereo not given),,inactive: -10.6%
O=C(NCC1CCCO1)c1cc(-c2ccncc2)nc2ccc(S(=O)(=O)N3CCOCC3)cc12 (stereo not given),"inconclusive: 11.2 µM [inhibitor, partial curve, poor fit]",
O=[N+]([O-])c1ccc(Oc2ccc(F)cc2)c2ccncc12,"inconclusive: 50.1 µM [inhibitor, partial curve, poor fit]",
CCOC(=O)N1CCN(C(=O)CS(=O)(=O)c2cn(Cc3ccc(F)cc3)c3ccccc23)CC1,"inconclusive: 1.41 µM [inhibitor, single point]",
Cc1ccc(Oc2ccc(C(F)(F)F)cc2[N+](=O)[O-])c([N+](=O)[O-])n1,,inactive: -3.9% [at 102 µM]
CCc1ccc2[nH]c(=O)c(CN(Cc3ccccc3OC)Cc3nnnn3Cc3ccco3)cc2c1,,inconclusive: -74.6% [inhibitor]
O=C1C(=O)N(CCCN2CCOCC2)C(c2ccc([N+](=O)[O-])cc2)/C1=C(/O)c1ccc2c(c1)OCO2 (stereo not given),active: 50.1 µM,
O=C(COC(=O)c1cnccn1)c1ccc(Cl)cc1,,inactive: -4.58% [at 102 µM]
COC(=O)c1[nH]c(C)c(/C(O)=C2\C(=O)C(=O)N(CCN3CCOCC3)C2c2cccnc2)c1C (stereo not given),,inconclusive: -88.9% [inhibitor]
Nc1nc2ccc(S(=O)(=O)c3ccc4nc(N)sc4c3)cc2s1,"inconclusive: 17.8 µM [inhibitor, partial curve]",
COC(=O)c1c(-c2cccc(C)c2)csc1N,"inconclusive: 1 µM [inhibitor, single point]",
N#C/C(=N\Nc1ccc(S(=O)(=O)N2CCCCC2)cc1)C(N)=S,"inconclusive: 0.316 µM [inhibitor, full curve, poor fit]",
CC1CCN(Cc2ccc(-c3nn[nH]n3)cc2)CC1,"inconclusive: 35.5 µM [inhibitor, partial curve]",
CC(=O)Nc1ccc(NC(=O)c2cc(CN3CCCC3)on2)cc1,,inactive: 8.11%
Cn1ccnc1C1CCCCN1Cc1nc(Cc2cccc(C(F)(F)F)c2)no1 (stereo not given),"inconclusive: 79.4 µM [inhibitor, single point]",
COc1cc(NC2c3ccccc3C(=O)N2c2ccc(C)cn2)cc(OC)c1OC (stereo not given),"inconclusive: 79.4 µM [inhibitor, single point]",
Cc1ccc(N=Cc2ccc(O)cc2O)cc1F,active: 10 µM,
CC/C(=C\C(=O)c1ccncc1)Nc1ccc(Br)cc1,"inconclusive: 31.6 µM [inhibitor, single point]",
Cc1nc2ccccn2c1C(=O)CSc1ccccc1,,inactive: 3.77% [at 102 µM]
O=C(Nc1ccccc1-c1nc2ccccc2s1)c1ccc(F)cc1,,inactive: 5.5%
COc1ccc(CCNc2nc(C)nc3c2oc2ccccc23)cc1OC,,inactive: 7.14% [at 12.7 µM]
COCCNC(=S)c1ccc(OC)cc1,"inconclusive: 7.08 µM [inhibitor, single point]",

SMILES,Potency,"activity, negative = inhibition"
CCOC(=O)C1CCN(S(=O)(=O)c2ccc(-c3ccc(=O)[nH]n3)o2)CC1,"inconclusive: 89.1 µM [inhibitor, single point]",
COc1ccc(N2CCN(C(=O)CCC(=O)N3CCOc4ccc(Cl)cc43)CC2)cc1,"inconclusive: 79.4 µM [inhibitor, partial curve, poor fit]",
O=c1c2ccccc2nc(SCc2cn3ccsc3n2)n1-c1ccc(F)cc1,"inconclusive: 35.5 µM [inhibitor, partial curve, poor fit]",
Cc1csc(NC(=O)CSc2nnc(NC(=O)C3CC(=O)N(c4ccccc4)C3)s2)n1 (stereo not given),"inconclusive: 35.5 µM [inhibitor, single point]",
CC(C)CC(=O)NC1(C(F)(F)F)C(=O)Nc2c1c(=O)[nH]c(=O)n2Cc1ccco1 (stereo not given),"inconclusive: 31.6 µM [inhibitor, single point]",
O=C(O)CCCC(=O)Nc1ccc(N2CCCC2)cc1,active: 39.8 µM,
Cc1c(C(=O)N(C)CCCCN2CCOCC2)oc2c(F)cccc12,,inactive: 1.42% [at 0.501 µM]
CCCC(=O)OCCn1c(Br)nc2c1c(=O)[nH]c(=O)n2C,"inconclusive: 39.8 µM [inhibitor, single point]",
CCOc1ccc(CCNC(=O)c2cc(=O)[nH]c3ccc(S(=O)(=O)N(CC)CC)cc23)cc1OCC,,inactive: 31.4% [at 102 µM]
CCCCOC(=O)Cc1c(O)c2ccccc2[nH]c1=O,"inconclusive: 70.8 µM [inhibitor, single point]",
CCn1c(=O)n(CC)c2cc(N3CCCC3)c(NC(=O)c3cc(Cl)ccc3OC)cc21,active: 39.8 µM,
COc1ccc(CCNC(=O)c2c(O)nc3ccccn3c2=O)cc1OC,"inconclusive: 25.1 µM [inhibitor, single point]",
O=C(CC1N=C2c3ccccc3N=C(SCC(=O)Nc3ccc(F)cc3)N2C1=O)NCc1ccco1 (stereo not given),,inactive: 7.69%
Cc1nn(-c2cccc(Cl)c2)c2c1C(c1cccnc1)C(C#N)=C(N)O2 (stereo not given),active: 44.7 µM,
c1ccc(CNc2ncnc3c2ncn3C2CCCCO2)cc1 (stereo not given),"inconclusive: 35.5 µM [inhibitor, single point]",
CCOc1ccc(NC(=O)c2oc3ccccc3c2NC(=O)C(C)(C)C)cc1,,inactive: -4.01%
CCOC(=O)c1c(C)[nH]c(C)c1C(=O)COC(=O)c1ccc(OC)c(OC)c1,"inconclusive: 50.1 µM [inhibitor, partial curve]",
Cn1c(=O)n(C)c2cc(NC(=O)c3ccc(F)cc3)ccc21,,inactive: 11.1% [at 102 µM]
CSc1nsc(SCC(=O)NCc2ccc(C)cc2)n1,,inactive: -12% [at 102 µM]
O=C(COC(=O)/C=C/c1ccc(C(F)(F)F)cc1)NC1CCS(=O)(=O)C1 (stereo not given),"inconclusive: 56.2 µM [inhibitor, partial curve, poor fit]",
C=CSc1sc(Cl)c(N(CC)CC)c1[N+](=O)[O-],active: 22.4 µM,
COc1ccc(NC(=O)c2csnn2)cc1Cl,"inconclusive: 28.2 µM [inhibitor, single point]",

# — PubChem BioAssay AID504332 (National Center for Advancing Translational Sciences (NCATS), 2011)
